Positions count from the first letter of the chain named. This is one part of the list.

B1: UUAGUUA (DNA:RNA)
RNA: GGGAGACCGGAAUUCAGAUUGUCCUUAGUUAUUAAAUCCCGUCGUAGCCACCA
DNA 1: CAATCTGAATTCCGGTCTCCC
DNA 2: TGGTGGCTACGACGGGATT
B2: UUUAGAG (DNA:RNA)
RNA: B1 RNA with A27U, G28A, U29G, U30A, A31G
DNA 1: CAATCTGAATTCCGGTCTCCC
DNA 2: TGGTGGCTACGACGGGATT
B3: AGGUUGG (DNA:RNA)
RNA: B1 RNA with U25A, U26G, A27G, G28U, U30G, A31G
DNA 1: CAATCTGAATTCCGGTCTCCC
DNA 2: TGGTGGCTACGACGGGATT
B4: ACUAAAC (DNA:RNA)
RNA: GGGAGACCGGAAUUCAGAUUGUCCACUAAACUUAAAUCCCGUCGUAGCCACCA
DNA 1: CAATCTGAATTCCGGTCTCCC
DNA 2: TGGTGGCTACGACGGGATT
B5: GGCUACC (DNA:RNA)
RNA: B4 RNA with A25G, C26G, U27C, A28U, A30C
DNA 1: CAATCTGAATTCCGGTCTCCC
DNA 2: TGGTGGCTACGACGGGATT
B6: AGCCUCC (DNA:RNA)
RNA: B4 RNA with C26G, U27C, A28C, A29U, A30C
DNA 1: CAATCTGAATTCCGGTCTCCC
DNA 2: TGGTGGCTACGACGGGATT
B7: GGGAUGC (DNA:RNA)
RNA: B4 RNA with A25G, C26G, U27G, A29U, A30G
DNA 1: CAATCTGAATTCCGGTCTCCC
DNA 2: TGGTGGCTACGACGGGATT
B8: AGAAGUC (DNA:RNA)
RNA: B4 RNA with C26G, U27A, A29G, A30U
DNA 1: CAATCTGAATTCCGGTCTCCC
DNA 2: TGGTGGCTACGACGGGATT
B9: UUUUUUA (DNA:RNA)
RNA: B1 RNA with A27U, G28U
DNA 1: CAATCTGAATTCCGGTCTCCC
DNA 2: TGGTGGCTACGACGGGATT
B10: GGAUCUA (DNA:RNA)
RNA: B1 RNA with U25G, U26G, G28U, U29C
DNA 1: CAATCTGAATTCCGGTCTCCC
DNA 2: TGGTGGCTACGACGGGATT
B11: GCGUCAG (DNA:RNA)
RNA: B4 RNA with A25G, U27G, A28U, A29C, C31G
DNA 1: CAATCTGAATTCCGGTCTCCC
DNA 2: TGGTGGCTACGACGGGATT
B12: UGAAGGA (DNA:RNA)
RNA: B1 RNA with U26G, G28A, U29G, U30G
DNA 1: CAATCTGAATTCCGGTCTCCC
DNA 2: TGGTGGCTACGACGGGATT
B13: CCUACUA (DNA:RNA)
RNA: B4 RNA with A25C, A29C, A30U, C31A
DNA 1: CAATCTGAATTCCGGTCTCCC
DNA 2: TGGTGGCTACGACGGGATT
B14: CGAACUC (DNA:RNA)
RNA: B4 RNA with A25C, C26G, U27A, A29C, A30U
DNA 1: CAATCTGAATTCCGGTCTCCC
DNA 2: TGGTGGCTACGACGGGATT
B15: UACGUAU (DNA:RNA)
RNA: B1 RNA with U26A, A27C, U30A, A31U
DNA 1: CAATCTGAATTCCGGTCTCCC
DNA 2: TGGTGGCTACGACGGGATT
B16: GAUUCAU (DNA:RNA)
RNA: B4 RNA with A25G, C26A, A28U, A29C, C31U
DNA 1: CAATCTGAATTCCGGTCTCCC
DNA 2: TGGTGGCTACGACGGGATT
B17: UUCUAAU (DNA:RNA)
RNA: B4 RNA with A25U, C26U, U27C, A28U, C31U
DNA 1: CAATCTGAATTCCGGTCTCCC
DNA 2: TGGTGGCTACGACGGGATT
B18: CGAUAGA (DNA:RNA)
RNA: B1 RNA with U25C, U26G, G28U, U29A, U30G
DNA 1: CAATCTGAATTCCGGTCTCCC
DNA 2: TGGTGGCTACGACGGGATT
B19: UUGAGCA (DNA:RNA)
RNA: B1 RNA with A27G, G28A, U29G, U30C
DNA 1: CAATCTGAATTCCGGTCTCCC
DNA 2: TGGTGGCTACGACGGGATT
B20: CACCGCC (DNA:RNA)
RNA: B4 RNA with A25C, C26A, U27C, A28C, A29G, A30C
DNA 1: CAATCTGAATTCCGGTCTCCC
DNA 2: TGGTGGCTACGACGGGATT
B21: AUUCUAG (DNA:RNA)
RNA: B4 RNA with C26U, A28C, A29U, C31G
DNA 1: CAATCTGAATTCCGGTCTCCC
DNA 2: TGGTGGCTACGACGGGATT
B22: CCCUGGA (DNA:RNA)
RNA: B4 RNA with A25C, U27C, A28U, A29G, A30G, C31A
DNA 1: CAATCTGAATTCCGGTCTCCC
DNA 2: TGGTGGCTACGACGGGATT
B23: AGAGACC (DNA:RNA)
RNA: B4 RNA with C26G, U27A, A28G, A30C
DNA 1: CAATCTGAATTCCGGTCTCCC
DNA 2: TGGTGGCTACGACGGGATT
B24: GAGUUGG (DNA:RNA)
RNA: B1 RNA with U25G, U26A, A27G, G28U, U30G, A31G
DNA 1: CAATCTGAATTCCGGTCTCCC
DNA 2: TGGTGGCTACGACGGGATT
B25: UAAUCGC (DNA:RNA)
RNA: B1 RNA with U26A, G28U, U29C, U30G, A31C
DNA 1: CAATCTGAATTCCGGTCTCCC
DNA 2: TGGTGGCTACGACGGGATT
B26: GCUCAUU (DNA:RNA)
RNA: B4 RNA with A25G, A28C, A30U, C31U
DNA 1: CAATCTGAATTCCGGTCTCCC
DNA 2: TGGTGGCTACGACGGGATT
B27: ACCUUAA (DNA:RNA)
RNA: B4 RNA with U27C, A28U, A29U, C31A
DNA 1: CAATCTGAATTCCGGTCTCCC
DNA 2: TGGTGGCTACGACGGGATT
B28: CGCAACC (DNA:RNA)
RNA: B4 RNA with A25C, C26G, U27C, A30C
DNA 1: CAATCTGAATTCCGGTCTCCC
DNA 2: TGGTGGCTACGACGGGATT
B29: CGUACCC (DNA:RNA)
RNA: B4 RNA with A25C, C26G, A29C, A30C
DNA 1: CAATCTGAATTCCGGTCTCCC
DNA 2: TGGTGGCTACGACGGGATT
B30: ACUGAUA (DNA:RNA)
RNA: B4 RNA with A28G, A30U, C31A
DNA 1: CAATCTGAATTCCGGTCTCCC
DNA 2: TGGTGGCTACGACGGGATT
B31: CCGCAGA (DNA:RNA)
RNA: B4 RNA with A25C, U27G, A28C, A30G, C31A
DNA 1: CAATCTGAATTCCGGTCTCCC
DNA 2: TGGTGGCTACGACGGGATT

In the experiment the target is T1, RBFOX1 RRM (Homo sapiens, UniProt Q9NWB1 109-208).
T1 sequence: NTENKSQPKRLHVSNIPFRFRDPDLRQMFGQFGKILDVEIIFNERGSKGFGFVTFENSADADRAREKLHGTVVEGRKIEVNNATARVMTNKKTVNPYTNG
Briefly: EMSA; HiTS-Eq, 1 nM pool, 10 min; buffer printed only for the single-RNA assays: 10 mM Tris pH 7.5, 150 mM NaCl, 3.4 mM EDTA, 0.001% NP-40, 30 C. As to conditions: tags: His6 N-terminal (pET28a); label: 5' 32P. In a few lines:
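Purified RbFox RRM (wild type or mutant) was equilibrated for 10 min in 50 µL with 1 nM of a 5′-radiolabelled pool of RNA with 7 randomized nucleotides, its flanks annealed to DNA oligonucleotides, across increasing protein concentrations. Free RNA was separated by 8% native PAGE, excised, reverse-transcribed, PCR-barcoded and sequenced on an Illumina HiSeq 2500. Relative association constants came from read-count changes of each variant against the control reaction, normalised to the cognate motif.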
Turning to B1, the binding signal is 0.00891 KA relative to UGCAUGU.

As for B2, the binding signal was 0.0156 KA relative to UGCAUGU.

In the case of B3, the binding signal was 0.0166 KA relative to UGCAUGU.

As for B4, the binding signal is 0.00318 KA relative to UGCAUGU.

For B5, the binding signal was 0.0071 KA relative to UGCAUGU.

For the molecule B6, the binding signal was 0.00234 KA relative to UGCAUGU.

Turning to B7, the binding signal is 0.0515 KA relative to UGCAUGU.

With B8, the binding signal is 0.0059 KA relative to UGCAUGU.

In the case of B9, the binding signal was 0.0102 KA relative to UGCAUGU.

Consider B10, for which the binding signal was 0.0142 KA relative to UGCAUGU.

On to B11, for which the binding signal was 0.0114 KA relative to UGCAUGU.

Take B12: the binding signal was 0.00721 KA relative to UGCAUGU.

Turning to B13, the binding signal is 0.00129 KA relative to UGCAUGU.

B14: the binding signal is 0.00851 KA relative to UGCAUGU.

Consider B15, for which the binding signal was 0.00835 KA relative to UGCAUGU.

As for B16, the binding signal is 0.00493 KA relative to UGCAUGU.

Take B17: the binding signal is 0.00144 KA relative to UGCAUGU.

In the case of B18, the binding signal is 0.0128 KA relative to UGCAUGU.

Consider B19, for which the binding signal is 0.0174 KA relative to UGCAUGU.

B20: the binding signal is 0.00333 KA relative to UGCAUGU.

As for B21, the binding signal is 0.00599 KA relative to UGCAUGU.

As to B22, the binding signal is 0.013 KA relative to UGCAUGU.

Turning to B23, the binding signal was 0.00486 KA relative to UGCAUGU.

With B24, the binding signal was 0.0176 KA relative to UGCAUGU.

Turning to B25, the binding signal was 0.0114 KA relative to UGCAUGU.

As for B26, the binding signal was 0.0092 KA relative to UGCAUGU.

For B27, the binding signal was 0.00107 KA relative to UGCAUGU.

Take B28: the binding signal is 0.0129 KA relative to UGCAUGU.

Turning to B29, the binding signal was 0.00424 KA relative to UGCAUGU.

Take B30: the binding signal was 0.00715 KA relative to UGCAUGU.

For the molecule B31, the binding signal was 0.0122 KA relative to UGCAUGU.
